# Reference: the supplement of paper PMC8728848
# Some of the results follow.
# What was measured:
# Assay in all cases: glycan array binding signal (z-score within array); higher = stronger binding
# Conditions in all cases: glycan notation: IUPAC condensed, linker removed
# [1] = target: Gal3S(b1-3)[Fuc(a1-4)]GlcNAc
# Outline: (§1)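 Negative Z-scores can be read as non-binding. The Z-score is calculated within each array and then averaged across arrays of one protein sequence at different concentrations or buffers and across linkers. Arrays, 3228 in all, were curated from the Consortium for Functional Glycomics database and kept only where the protein sequence was available.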
# Gal3S(b1-4)Glc = target: Gal3S(b1-4)Glc
# Outline: as §1
# Gal3S(b1-4)Glc6S = target: Gal3S(b1-4)Glc6S
# Outline: as §1
# Gal3S(b1-4)GlcNAc = target: Gal3S(b1-4)GlcNAc
# Outline: as §1
# Gal3S(b1-4)GlcNAc6S = target: Gal3S(b1-4)GlcNAc6S
# Outline: as §1
# [2] = target: Gal3S(b1-4)[Fuc(a1-3)]Glc
# Outline: as §1
# [3] = target: Gal3S(b1-4)[Fuc(a1-3)]Glc6S
# Outline: as §1
# Gal3S4S(b1-4)GlcNAc = target: Gal3S4S(b1-4)GlcNAc
# Outline: as §1
# Gal3S6S(b1-4)GlcNAc = target: Gal3S6S(b1-4)GlcNAc
# Outline: as §1
# Gal3S6S(b1-4)GlcNAc6S = target: Gal3S6S(b1-4)GlcNAc6S
# Outline: as §1
# Gal4S(b1-4)GlcNAc = target: Gal4S(b1-4)GlcNAc
# Outline: as §1
# Gal4S6S(b1-4)GlcNAc = target: Gal4S6S(b1-4)GlcNAc
# Outline: as §1
# Gal6S(b1-3)GlcNAc = target: Gal6S(b1-3)GlcNAc
# Outline: as §1
# Gal6S(b1-3)GlcNAc6S = target: Gal6S(b1-3)GlcNAc6S
# Outline: as §1
# Gal6S(b1-4)Glc = target: Gal6S(b1-4)Glc
# Outline: as §1
# Gal6S(b1-4)Glc6S = target: Gal6S(b1-4)Glc6S
# Outline: as §1
# Gal6S(b1-4)GlcNAc = target: Gal6S(b1-4)GlcNAc
# Outline: as §1
# Gal6S(b1-4)GlcNAc6S = target: Gal6S(b1-4)GlcNAc6S
# Outline: as §1
# GalNAc(a1-3)Gal = target: GalNAc(a1-3)Gal
# Outline: as §1
# GalNAc(a1-3)GalNAc = target: GalNAc(a1-3)GalNAc
# Outline: as §1
# [4] = target: GalNAc(a1-3)GalNAc(b1-3)Gal(a1-4)Gal(b1-4)Glc
# Outline: as §1
# [5] = target: GalNAc(a1-3)GalNAc(b1-3)Gal(a1-4)Gal(b1-4)GlcNAc
# Outline: as §1
# GalNAc(b1-3)Gal = target: GalNAc(b1-3)Gal
# Outline: as §1
# [6] = target: GalNAc(b1-3)Gal(a1-4)Gal(b1-4)GlcNAc
# Outline: as §1
# [7] = target: GalNAc(b1-3)Gal(a1-4)Gal(b1-4)GlcNAc(b1-3)Gal(b1-4)Glc
# Outline: as §1
# [8] = target: GalNAc(b1-3)Gal(a1-6)Gal(b1-4)Glc
# Outline: as §1
# GalNAc(b1-3)GalNAc = target: GalNAc(b1-3)GalNAc
# Outline: as §1
# GalNAc(b1-4)Gal(b1-4)Glc = target: GalNAc(b1-4)Gal(b1-4)Glc
# Outline: as §1
# GalNAc(b1-4)GlcNAc = target: GalNAc(b1-4)GlcNAc
# Outline: as §1
# [9] = target: GalNAc(b1-4)GlcNAc(b1-2)Man(a1-3)[GalNAc(b1-4)GlcNAc(b1-2)Man(a1-6)]Man(b1-4)GlcNAc(b1-4)GlcNAc
# Outline: as §1
# GalNAc(b1-6)GalNAc = target: GalNAc(b1-6)GalNAc
# Outline: as §1
# Glc(a1-4)Glc = target: Glc(a1-4)Glc
# Outline: as §1
# [10] = target: Glc(a1-4)Glc(a1-4)Glc(a1-4)Glc
# Outline: as §1
# Glc(a1-6)Glc(a1-6)Glc = target: Glc(a1-6)Glc(a1-6)Glc
# Outline: as §1
# [11] = target: Glc(a1-6)Glc(a1-6)Glc(a1-6)Glc
# Outline: as §1
# Glc(b1-4)Glc = target: Glc(b1-4)Glc
# Outline: as §1
# Glc(b1-6)Glc = target: Glc(b1-6)Glc
# Outline: as §1
# GlcA(b1-3)Gal = target: GlcA(b1-3)Gal
# Outline: as §1
# GlcA(b1-3)GlcNAc = target: GlcA(b1-3)GlcNAc
# Outline: as §1
# GlcA(b1-6)Gal = target: GlcA(b1-6)Gal
# Outline: as §1
# [12] = target: GlcNAc(a1-3)Gal(b1-4)GlcNAc
# Outline: as §1
# [13] = target: GlcNAc(a1-4)Gal(b1-3)GlcNAc
# Outline: as §1
# [14] = target: GlcNAc(a1-4)Gal(b1-4)GalNAc
# Outline: as §1
# [15] = target: GlcNAc(a1-4)Gal(b1-4)GlcNAc
# Outline: as §1
# [16] = target: GlcNAc(a1-4)Gal(b1-4)GlcNAc(b1-3)Gal(b1-4)Glc
# Outline: as §1
binder,measurement,setting,value
"3FTT (Staphylococcus aureus), Q5HCZ5 (protein) MTEKEKMLAEKWYDANFDQYLINERARAKDICFELNHTRPSATNKRKELIDQLFQTTTDNVSISIPFDTDYGWNVKLGKNVYVNTNCYFMDGGQITIGDNVFIGPNCGFYTATHPLNFHHRNEGFEKAGPIHIGSNTWFGGHVAVLPGVTIGEGSVIGAGSVVTKDIPPHSLAVGNPCKVVRKIDNDLPSETLNDETIK",glycan array binding signal (z-score),[1],-0.169
same,glycan array binding signal (z-score),Gal3S(b1-4)Glc,0.179
same,glycan array binding signal (z-score),Gal3S(b1-4)Glc6S,0.798
same,glycan array binding signal (z-score),Gal3S(b1-4)GlcNAc,0.036
same,glycan array binding signal (z-score),Gal3S(b1-4)GlcNAc6S,-0.115
same,glycan array binding signal (z-score),[2],-0.147
same,glycan array binding signal (z-score),[3],-0.009
same,glycan array binding signal (z-score),Gal3S4S(b1-4)GlcNAc,-0.133
same,glycan array binding signal (z-score),Gal3S6S(b1-4)GlcNAc,-0.001
same,glycan array binding signal (z-score),Gal3S6S(b1-4)GlcNAc6S,0.149
same,glycan array binding signal (z-score),Gal4S(b1-4)GlcNAc,0.051
same,glycan array binding signal (z-score),Gal4S6S(b1-4)GlcNAc,-0.099
same,glycan array binding signal (z-score),Gal6S(b1-3)GlcNAc,0.147
same,glycan array binding signal (z-score),Gal6S(b1-3)GlcNAc6S,-0.183
same,glycan array binding signal (z-score),Gal6S(b1-4)Glc,-0.025
same,glycan array binding signal (z-score),Gal6S(b1-4)Glc6S,-0.13
same,glycan array binding signal (z-score),Gal6S(b1-4)GlcNAc,-0.304
same,glycan array binding signal (z-score),Gal6S(b1-4)GlcNAc6S,-0.226
same,glycan array binding signal (z-score),GalNAc(a1-3)Gal,0.016
same,glycan array binding signal (z-score),GalNAc(a1-3)GalNAc,-0.129
same,glycan array binding signal (z-score),[4],-0.185
same,glycan array binding signal (z-score),[5],-0.01
same,glycan array binding signal (z-score),GalNAc(b1-3)Gal,-0.332
same,glycan array binding signal (z-score),[6],-0.016
same,glycan array binding signal (z-score),[7],0.029
same,glycan array binding signal (z-score),[8],-0.191
same,glycan array binding signal (z-score),GalNAc(b1-3)GalNAc,-0.264
same,glycan array binding signal (z-score),GalNAc(b1-4)Gal(b1-4)Glc,-0.095
same,glycan array binding signal (z-score),GalNAc(b1-4)GlcNAc,0.059
same,glycan array binding signal (z-score),[9],5.95
same,glycan array binding signal (z-score),GalNAc(b1-6)GalNAc,0.17
same,glycan array binding signal (z-score),Glc(a1-4)Glc,-0.061
same,glycan array binding signal (z-score),[10],0.344
same,glycan array binding signal (z-score),Glc(a1-6)Glc(a1-6)Glc,-0.118
same,glycan array binding signal (z-score),[11],0.216
same,glycan array binding signal (z-score),Glc(b1-4)Glc,-0.457
same,glycan array binding signal (z-score),Glc(b1-6)Glc,-0.054
same,glycan array binding signal (z-score),GlcA(b1-3)Gal,-0.055
same,glycan array binding signal (z-score),GlcA(b1-3)GlcNAc,-0.15
same,glycan array binding signal (z-score),GlcA(b1-6)Gal,-0.157
same,glycan array binding signal (z-score),[12],-0.033
same,glycan array binding signal (z-score),[13],0.016
same,glycan array binding signal (z-score),[14],0.301
same,glycan array binding signal (z-score),[15],0.089
same,glycan array binding signal (z-score),[16],0.079
